Results as given in publication PMC9911399, “Two distinct binding modes provide the RNA-binding protein RbFox with extraordinary sequence specificity”.
Where a chain is given by its changes, count along the chain named. The list shows a part of the results.

T1: RBFOX1 RRM (Homo sapiens, UniProt Q9NWB1 109-208)
T1 sequence: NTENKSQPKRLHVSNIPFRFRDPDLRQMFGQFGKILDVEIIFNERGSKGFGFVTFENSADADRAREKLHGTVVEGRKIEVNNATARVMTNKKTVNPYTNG

B1: UUCUGGA (DNA:RNA)
RNA: GGGAGACCGGAAUUCAGAUUGUCCUUCUGGAUUAAAUCCCGUCGUAGCCACCA
DNA 1: CAATCTGAATTCCGGTCTCCC
DNA 2: TGGTGGCTACGACGGGATT
B2: AGACUCA (DNA:RNA)
RNA: B1 RNA with U25A, U26G, C27A, U28C, G29U, G30C
DNA 1: CAATCTGAATTCCGGTCTCCC
DNA 2: TGGTGGCTACGACGGGATT
B3: CUGCUAC (DNA:RNA)
RNA: B1 RNA with U25C, C27G, U28C, G29U, G30A, A31C
DNA 1: CAATCTGAATTCCGGTCTCCC
DNA 2: TGGTGGCTACGACGGGATT
B4: CUGGUCC (DNA:RNA)
RNA: B1 RNA with U25C, C27G, U28G, G29U, G30C, A31C
DNA 1: CAATCTGAATTCCGGTCTCCC
DNA 2: TGGTGGCTACGACGGGATT
B5: GGAGAAG (DNA:RNA)
RNA: GGGAGACCGGAAUUCAGAUUGUCCGGAGAAGUUAAAUCCCGUCGUAGCCACCA
DNA 1: CAATCTGAATTCCGGTCTCCC
DNA 2: TGGTGGCTACGACGGGATT
B6: CAGCGCU (DNA:RNA)
RNA: B1 RNA with U25C, U26A, C27G, U28C, G30C, A31U
DNA 1: CAATCTGAATTCCGGTCTCCC
DNA 2: TGGTGGCTACGACGGGATT
B7: CGGAGGC (DNA:RNA)
RNA: B1 RNA with U25C, U26G, C27G, U28A, A31C
DNA 1: CAATCTGAATTCCGGTCTCCC
DNA 2: TGGTGGCTACGACGGGATT
B8: GAACGAG (DNA:RNA)
RNA: B5 RNA with G26A, G28C, A29G
DNA 1: CAATCTGAATTCCGGTCTCCC
DNA 2: TGGTGGCTACGACGGGATT
B9: CGCUCAA (DNA:RNA)
RNA: B1 RNA with U25C, U26G, G29C, G30A
DNA 1: CAATCTGAATTCCGGTCTCCC
DNA 2: TGGTGGCTACGACGGGATT
B10: GGAACGC (DNA:RNA)
RNA: B5 RNA with G28A, A29C, A30G, G31C
DNA 1: CAATCTGAATTCCGGTCTCCC
DNA 2: TGGTGGCTACGACGGGATT
B11: UGCCCCG (DNA:RNA)
RNA: B5 RNA with G25U, A27C, G28C, A29C, A30C
DNA 1: CAATCTGAATTCCGGTCTCCC
DNA 2: TGGTGGCTACGACGGGATT
B12: UGGGGCG (DNA:RNA)
RNA: B5 RNA with G25U, A27G, A29G, A30C
DNA 1: CAATCTGAATTCCGGTCTCCC
DNA 2: TGGTGGCTACGACGGGATT
B13: GCGAAGA (DNA:RNA)
RNA: B5 RNA with G26C, A27G, G28A, A30G, G31A
DNA 1: CAATCTGAATTCCGGTCTCCC
DNA 2: TGGTGGCTACGACGGGATT
B14: ACUAAUG (DNA:RNA)
RNA: B5 RNA with G25A, G26C, A27U, G28A, A30U
DNA 1: CAATCTGAATTCCGGTCTCCC
DNA 2: TGGTGGCTACGACGGGATT
B15: UGGCGGU (DNA:RNA)
RNA: B1 RNA with U26G, C27G, U28C, A31U
DNA 1: CAATCTGAATTCCGGTCTCCC
DNA 2: TGGTGGCTACGACGGGATT
B16: CAACUGC (DNA:RNA)
RNA: B5 RNA with G25C, G26A, G28C, A29U, A30G, G31C
DNA 1: CAATCTGAATTCCGGTCTCCC
DNA 2: TGGTGGCTACGACGGGATT
B17: UGUCGCA (DNA:RNA)
RNA: B1 RNA with U26G, C27U, U28C, G30C
DNA 1: CAATCTGAATTCCGGTCTCCC
DNA 2: TGGTGGCTACGACGGGATT
B18: AGAGGAC (DNA:RNA)
RNA: B5 RNA with G25A, A29G, G31C
DNA 1: CAATCTGAATTCCGGTCTCCC
DNA 2: TGGTGGCTACGACGGGATT
B19: AACGUUG (DNA:RNA)
RNA: B5 RNA with G25A, G26A, A27C, A29U, A30U
DNA 1: CAATCTGAATTCCGGTCTCCC
DNA 2: TGGTGGCTACGACGGGATT
B20: UACAGCA (DNA:RNA)
RNA: B1 RNA with U26A, U28A, G30C
DNA 1: CAATCTGAATTCCGGTCTCCC
DNA 2: TGGTGGCTACGACGGGATT

These binders were tested against T1, RBFOX1 RRM (assay: EMSA; HiTS-Eq, 1 nM pool, 10 min; buffer printed only for the single-RNA assays: 10 mM Tris pH 7.5, 150 mM NaCl, 3.4 mM EDTA, 0.001% NP-40, 30 C). Conditions: tags: His6 N-terminal (pET28a); label: 5' 32P.
How it was run: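 Relative association constants, normalised to the cognate motif, were derived by comparing read counts of each RNA species with those of the control reaction. The RNA sequenced was the free fraction, separated by 8% native PAGE after a 10 min equilibration in 50 µL of 1 nM 5′-radiolabelled RNA (7 randomized nucleotides) with increasing concentrations of purified wild-type or mutant RbFox RRM.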

Compared with B1, B2 is lower in binding signal: 0.00363 KA relative to UGCAUGU for the first, 0.00257 KA relative to UGCAUGU for the second.

First: B3
Second: B4
The binding signal of the first is lower: 0.0139 KA relative to UGCAUGU for the first, 0.0227 KA relative to UGCAUGU for the second.

Compared with B5, B6 is lower in binding signal: 0.0214 KA relative to UGCAUGU for the first, 0.00782 KA relative to UGCAUGU for the second.

Compared with B7, B8 is lower in binding signal: 0.023 KA relative to UGCAUGU for the first, 0.0182 KA relative to UGCAUGU for the second.

First: B9
Second: B10
The binding signal of the first is lower: 0.00447 KA relative to UGCAUGU for the first, 0.0165 KA relative to UGCAUGU for the second.

First: B11
Second: B12
The binding signal of the first is lower: 0.0106 KA relative to UGCAUGU for the first, 0.0294 KA relative to UGCAUGU for the second.

Compared with B13, B14 is lower in binding signal: 0.0177 KA relative to UGCAUGU for the first, 0.00752 KA relative to UGCAUGU for the second.

First: B15
Second: B16
The binding signal of the first is higher: 0.0227 KA relative to UGCAUGU for the first, 0.00601 KA relative to UGCAUGU for the second.

First: B17
Second: B18
The binding signal of the first is higher: 0.0244 KA relative to UGCAUGU for the first, 0.00634 KA relative to UGCAUGU for the second.

Compared with B19, B20 is lower in binding signal: 0.0157 KA relative to UGCAUGU for the first, 0.0102 KA relative to UGCAUGU for the second.
